Source: patent US20250276979A1, “SARS-COV2 MAIN PROTEASE INHIBITORS” (Gilead Sciences, Inc., priority 2024, published 2025)
pIC50: −log10 of the molar value.

target: recombinant SARS-CoV-2 Main protease (Mpro) (Severe acute respiratory syndrome coronavirus 2, UniProt P0DTD1); test: Cov Mpro Biochemical IC50 Assay; conditions: 7.5 nM Mpro, fluorogenic peptide substrate 40 μM, 20 min pre-incubation

Row | Structure (SMILES) | pIC50
1 | COc1cc(-c2cc3[nH]c(=O)n([C@@H]4CCCNC(=O)C4)c(=O)c3cc2OC)c(C#N)cc1F [Example 56, (R)-5-fluoro-4-methoxy-2-(6-methoxy-2,4-dioxo-3-(2-oxoazepan-4-yl)-1,2,3,4-tetrahydroquinazolin-7-yl)benzonitrile] | 7.47
2 | O=C1C[C@@H](n2c(=O)[nH]c3cc(-c4ccccc4Cl)sc3c2=O)CCN1 [Example 5, (S)-6-(2-chlorophenyl)-3-(2-oxopiperidin-4-yl)thieno[3,2-d]pyrimidine-2,4(1H,3H)-dione] | 7.61
3 | Cn1cc(-c2cccc(Cl)c2-c2cc3[nH]c(=O)n(C4CCNC(=O)C4)c(=O)c3s2)c(C(F)(F)F)n1 (centres unmarked) [Example 12, 6-(2-chloro-6-(1-methyl-3-(trifluoromethyl)-1H-pyrazol-4-yl)phenyl)-3-(2-oxopiperidin-4-yl)thieno[3,2-d]pyrimidine-2,4(1H,3H)-dione] | 6.73
4 | COc1cnc(Cl)c(-c2cc3c(s2)c(=O)n([C@@H]2CCCNC(=O)C2)c(=O)n3CCC#N)c1 [Example 50, (R)-3-(6-(2-chloro-5-methoxypyridin-3-yl)-2,4-dioxo-3-(2-oxoazepan-4-yl)-3,4-dihydrothieno[3,2-d]pyrimidin-1(2H)-yl)propanenitrile] | 6.61
5 | COc1cc(Cl)c(-c2cc3[nH]c(=O)n([C@H]4CCNC(=O)C4)c(=O)c3s2)cc1OC [Example 18, (S)-6-(2-chloro-4,5-dimethoxyphenyl)-3-(2-oxopiperidin-4-yl)thieno[3,2-d]pyrimidine-2,4(1H,3H)-dione] | 7.20
6 | COc1cc(-c2cc3c(s2)c(=O)n([C@H]2CCCNC(=O)C2)c(=O)n3C)c(Cl)cc1F [Example 33, (S)-6-(2-chloro-4-fluoro-5-methoxyphenyl)-1-methyl-3-(2-oxoazepan-4-yl)thieno[3,2-d]pyrimidine-2,4(1H,3H)-dione] | 6.41
7 | COc1cc(-c2cc3[nH]c(=O)n(C4CCCCNC(=O)C4)c(=O)c3s2)c(Cl)cc1F (centres unmarked) [Example 58, 6-(2-chloro-4-fluoro-5-methoxyphenyl)-3-(2-oxoazocan-4-yl)thieno[3,2-d]pyrimidine-2,4(1H,3H)-dione] | 7.16
8 | Cc1noc(C)c1-c1cc2[nH]c(=O)n([C@H]3CCNC(=O)C3)c(=O)c2s1 [Example 19, (S)-6-(3,5-dimethylisoxazol-4-yl)-3-(2-oxopiperidin-4-yl)thieno[3,2-d]pyrimidine-2,4(1H,3H)-dione] | 5.62
9 | COc1cc(-c2cc3c(s2)c(=O)n([C@@H]2CCCNC(=O)C2)c(=O)n3CCN2CCCC2=O)c(Cl)cc1F [Example 39, (R)-6-(2-chloro-4-fluoro-5-methoxyphenyl)-3-(2-oxoazepan-4-yl)-1-(2-(2-oxopyrrolidin-1-yl)ethyl)thieno[3,2-d]pyrimidine-2,4(1H,3H)-dione] | 7.27
10 | COc1ccc(Cl)c(-c2cc3c(s2)c(=O)n([C@@H]2CCCNC(=O)C2)c(=O)n3CC#N)c1 [Example 28, (R)-2-(6-(2-chloro-5-methoxyphenyl)-2,4-dioxo-3-(2-oxoazepan-4-yl)-3,4-dihydrothieno[3,2-d]pyrimidin-1(2H)-yl)acetonitrile] | > 8.43
11 | COc1cc(-c2cc3c(s2)c(=O)n([C@@H]2CCCNC(=O)C2)c(=O)n3CCNC(C)=O)c(Cl)cc1F [Example 37, (R)—N-(2-(6-(2-chloro-4-fluoro-5-methoxyphenyl)-2,4-dioxo-3-(2-oxoazepan-4-yl)-3,4-dihydrothieno[3,2-d]pyrimidin-1(2H)-yl)ethyl)acetamide] | 7.56
12 | COc1cc(-c2cc3c(s2)c(=O)n([C@@H]2CCCNC(=O)C2)c(=O)n3C)c(Cl)cc1F [Example 32, (R)-6-(2-chloro-4-fluoro-5-methoxyphenyl)-1-methyl-3-(2-oxoazepan-4-yl)thieno[3,2-d]pyrimidine-2,4(1H,3H)-dione] | 8.25
13 | COc1cc(-c2cc3[nH]c(=O)n([C@@H]4CCCNC(=O)C4)c(=O)c3s2)c(C#N)cc1F [Example 46, (R)-2-(2,4-dioxo-3-(2-oxoazepan-4-yl)-1,2,3,4-tetrahydrothieno[3,2-d]pyrimidin-6-yl)-5-fluoro-4-methoxybenzonitrile] | 8.20
14 | COc1ccc(Cl)c(-c2cc3[nH]c(=O)n(C4CCCNC(=O)C4)c(=O)c3s2)c1 (centres unmarked) [Example 20, 6-(2-chloro-5-methoxyphenyl)-3-(2-oxoazepan-4-yl)thieno[3,2-d]pyrimidine-2,4(1H,3H)-dione] | > 8.43
15 | O=C1C[C@H](n2c(=O)[nH]c3cc(-c4ccccc4Cl)sc3c2=O)CCN1 [Example 4, (R)-6-(2-chlorophenyl)-3-(2-oxopiperidin-4-yl)thieno[3,2-d]pyrimidine-2,4(1H,3H)-dione] | 6.71
16 | COc1cc(-c2cc3[nH]c(=O)n(C4CC(=O)NCC(C)(C)C4)c(=O)c3s2)c(Cl)cc1F (centres unmarked) [Example 55, 6-(2-chloro-4-fluoro-5-methoxyphenyl)-3-(6,6-dimethyl-2-oxoazepan-4-yl)thieno[3,2-d]pyrimidine-2,4(1H,3H)-dione] | 8.13
17 | O=C1CC(n2c(=O)[nH]c3cc(-c4ccccc4Cl)ccc3c2=O)CCCN1 (centres unmarked) [Example 9, 7-(2-chlorophenyl)-3-(2-oxoazepan-4-yl)quinazoline-2,4(1H,3H)-dione] | 6.13
18 | COc1ccc(C#N)c(-c2cc3[nH]c(=O)n([C@H]4CCNC(=O)C4)c(=O)c3s2)c1 [Example 26, (S)-2-(2,4-dioxo-3-(2-oxopiperidin-4-yl)-1,2,3,4-tetrahydrothieno[3,2-d]pyrimidin-6-yl)-4-methoxybenzonitrile] | 7.21

Row | Structure (SMILES) | pIC50
19 | COc1cnc(Cl)c(-c2cc3[nH]c(=O)n(C4CCNC(=O)C4)c(=O)c3s2)c1 (centres unmarked) [Example 15, 6-(2-chloro-5-methoxypyridin-3-yl)-3-(2-oxopiperidin-4-yl)thieno[3,2-d]pyrimidine-2,4(1H,3H)-dione] | 6.45
20 | COc1cc(-c2cc3[nH]c(=O)n([C@@H]4CCCNC(=O)C4)c(=O)c3s2)c(C)cc1F [Example 45, (R)-6-(4-fluoro-5-methoxy-2-methylphenyl)-3-(2-oxoazepan-4-yl)thieno[3,2-d]pyrimidine-2,4(1H,3H)-dione] | 7.79
21 | COc1cc(-c2cc3c(s2)c(=O)n([C@@H]2CCCNC(=O)C2)c(=O)n3CCOC(F)(F)F)c(Cl)cc1F [Example 38, (R)-6-(2-chloro-4-fluoro-5-methoxyphenyl)-3-(2-oxoazepan-4-yl)-1-(2-(trifluoromethoxy)ethyl)thieno[3,2-d]pyrimidine-2,4(1H,3H)-dione] | 6.73
22 | COc1cc(-c2cc3[nH]c(=O)n([C@@H]4CCCNC(=O)C4)c(=O)c3o2)c(Cl)cc1F [Example 59, (R)-6-(2-chloro-4-fluoro-5-methoxyphenyl)-3-(2-oxoazepan-4-yl)furo[3,2-d]pyrimidine-2,4(1H,3H)-dione] | 7.35
23 | COc1ccc(Cl)c(-c2cc3[nH]c(=O)n(C4CCNC(=O)C4)c(=O)c3s2)c1 (centres unmarked) [Example 7, 6-(2-chloro-5-methoxy-phenyl)-3-(2-oxo-4-piperidyl)-1H-thieno[3,2-d]pyrimidine-2,4-dione] | 7.87
24 | COc1cc(-c2cc3c(s2)c(=O)n([C@H]2CCCNC(=O)C2)c(=O)n3CC#N)c(Cl)cc1F [Example 35, (S)-2-(6-(2-chloro-4-fluoro-5-methoxyphenyl)-2,4-dioxo-3-(2-oxoazepan-4-yl)-3,4-dihydrothieno[3,2-d]pyrimidin-1(2H)-yl)acetonitrile] | 7.50
25 | O=C1C[C@H](n2c(=O)[nH]c3cc(-c4ccccc4Cl)sc3c2=O)CCCN1 (single isomer, unassigned) [Example 21] | 8.22
26 | COc1cc(-c2cc3c(s2)c(=O)n([C@@H]2CCCNC(=O)C2)c(=O)n3CC#N)c(Cl)cc1F [Example 34, (R)-2-(6-(2-chloro-4-fluoro-5-methoxyphenyl)-2,4-dioxo-3-(2-oxoazepan-4-yl)-3,4-dihydrothieno[3,2-d]pyrimidin-1(2H)-yl)acetonitrile] | > 8.43
27 | COc1cc(-c2cc3[nH]c(=O)n([C@@H]4CC(=O)NC[C@@H](C)C4)c(=O)c3s2)c(Cl)cc1F (single isomer, unassigned) [Example 53] | 8.00
28 | COc1cnc(Cl)c(-c2cc3[nH]c(=O)n([C@@H]4CCCNC(=O)C4)c(=O)c3s2)c1 [Example 44, (R)-6-(2-chloro-5-methoxypyridin-3-yl)-3-(2-oxoazepan-4-yl)thieno[3,2-d]pyrimidine-2,4(1H,3H)-dione] | 8.05
29 | COc1cc(-c2cc3[nH]c(=O)n([C@@H]4CCCNC(=O)C4)c(=O)c3s2)c(Cl)cc1Cl [Example 47, (R)-6-(2,4-dichloro-5-methoxyphenyl)-3-(2-oxoazepan-4-yl)thieno[3,2-d]pyrimidine-2,4(1H,3H)-dione] | > 8.43
30 | COc1cc(-c2cc3c(s2)c(=O)n([C@@H]2CCCNC(=O)C2)c(=O)n3CC(F)F)c(Cl)cc1F [Example 43, (R)-6-(2-chloro-4-fluoro-5-methoxyphenyl)-1-(2,2-difluoroethyl)-3-(2-oxoazepan-4-yl)thieno[3,2-d]pyrimidine-2,4(1H,3H)-dione] | 7.89
31 | COc1cc(-c2cc3[nH]c(=O)n([C@H]4CNC(=O)C4)c(=O)c3o2)c(Cl)cc1F [Example 57, 6-(2-chloro-4-fluoro-5-methoxy-phenyl)-3-[(3R)-5-oxopyrrolidin-3-yl]-1H-furo[3,2-d]pyrimidine-2,4-dione] | < 6.00
32 | O=C1C[C@@H](n2c(=O)[nH]c3cc(-c4ccccc4Cl)sc3c2=O)CN1 [Example 3, 6-(2-chlorophenyl)-3-[(3R)-5-oxopyrrolidin-3-yl]-1H-thieno[3,2-d]pyrimidine-2,4-dione] | 5.79
33 | O=C1C[C@@H](n2c(=O)[nH]c3cc(-c4ccccc4Cl)sc3c2=O)CCCN1 (single isomer, unassigned) [Example 22] | 7.16
34 | N#CCCn1c(=O)n([C@@H]2CCCNC(=O)C2)c(=O)c2sc(-c3ccccc3Cl)cc21 [Example 51, (R)-3-(6-(2-chlorophenyl)-2,4-dioxo-3-(2-oxoazepan-4-yl)-3,4-dihydrothieno[3,2-d]pyrimidin-1(2H)-yl)propanenitrile] | 7.58
35 | COc1cc(-c2cc3[nH]c(=O)n(C4CCNC(=O)C4)c(=O)c3s2)c(Cl)cc1F (centres unmarked) [Example 14, 6-(2-chloro-4-fluoro-5-methoxyphenyl)-3-(2-oxopiperidin-4-yl)thieno[3,2-d]pyrimidine-2,4(1H,3H)-dione] | 7.59
